Results taken from publication PMC6919601, “Identification of Plasmodium dipeptidyl aminopeptidase allosteric inhibitors by high throughput screening” (PLoS ONE, 2019).
Hit rate of the full screen: of about 110,000 compounds, about 230 (0.21%) showed an effect of 50% or more. Some of the results follow.

Biological target: DPAP1 (Plasmodium falciparum, UniProt Q8IIJ9)
Assay: primary screen, percent inhibition; read by cleavage of a fluorogenic dipeptide substrate; higher = more effect of the substance
Parameters: species or system P. falciparum D10 trophozoite lysates; single well
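Further: 30 min substrate incubation versus DMSO and 10 µM JCP410 controls.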

DPAP1, sequence (Q8IIJ9 whole entry, looked up): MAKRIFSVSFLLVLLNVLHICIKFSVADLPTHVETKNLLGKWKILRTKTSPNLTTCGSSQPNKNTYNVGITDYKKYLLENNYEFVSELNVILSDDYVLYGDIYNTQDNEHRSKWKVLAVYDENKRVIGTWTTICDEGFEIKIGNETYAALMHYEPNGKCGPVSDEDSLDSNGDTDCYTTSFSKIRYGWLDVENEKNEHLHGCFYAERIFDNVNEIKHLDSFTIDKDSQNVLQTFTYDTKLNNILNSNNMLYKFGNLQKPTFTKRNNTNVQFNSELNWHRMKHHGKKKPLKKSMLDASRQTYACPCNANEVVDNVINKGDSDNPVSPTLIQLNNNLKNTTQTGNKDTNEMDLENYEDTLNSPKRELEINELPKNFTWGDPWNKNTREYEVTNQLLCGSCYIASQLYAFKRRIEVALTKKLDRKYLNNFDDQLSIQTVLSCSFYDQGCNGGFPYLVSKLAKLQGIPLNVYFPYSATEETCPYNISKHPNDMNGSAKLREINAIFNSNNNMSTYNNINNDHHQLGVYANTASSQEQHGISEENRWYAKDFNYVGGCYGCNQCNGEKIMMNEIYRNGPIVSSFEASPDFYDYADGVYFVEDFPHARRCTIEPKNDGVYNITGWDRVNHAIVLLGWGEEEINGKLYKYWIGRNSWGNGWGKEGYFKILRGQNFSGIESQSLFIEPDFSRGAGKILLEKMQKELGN

CCOc1ccc(NS(=O)(=O)c2ccc(NC(=O)Nc3ccc(Cl)cc3)cc2)cc1 and CCOc1ccc(NS(=O)(=O)c2ccc(NC(=O)c3ccc(C)cc3)cc2)cc1 are the same in “% Inhibition @ 10 uM” value: 0.245% for the first, 0.245% for the second.

First: CCSc1nc(C)cc(COC)c1C#N
Second: CCc1nc(-c2ccccc2)nc(C)c1C
The “% Inhibition @ 10 uM” value of the first is higher: 2.94% for the first, -6.47% for the second.

Going from CCOc1ccc(C(=O)NCc2ccccc2)cc1 to O=C(NCc1ccccc1)c1ccccn1, the “% Inhibition @ 10 uM” value falls from 3.48% to -6.25%.

First: Cc1ccc(S(N)(=O)=O)cc1NC(=O)c1cccc(F)c1F
Second: Cc1ccc(C(=O)Nc2ccc(S(N)(=O)=O)cc2)cc1C
The “% Inhibition @ 10 uM” value of the first is higher: 0.992% for the first, -3.39% for the second.

Going from Clc1ccc(N2CCN(Cc3ccc(Cl)cc3Cl)CC2)cc1 to CCOc1ccccc1CN1CCN(c2ccc(OC)cc2)CC1, the “% Inhibition @ 10 uM” value falls from 4.04% to -1.77%.

Compared with Cn1cc(C(=O)NCCc2ccc(Cl)cc2)c2c3ccccc3n(C)c2c1=O, CN(Cc1ccccc1)C(=O)Cn1ncc2c3ccccc3n(C)c2c1=O is lower in “% Inhibition @ 10 uM” value: 6.87% for the first, 1.41% for the second.

Going from Cc1cc(OCC(=O)Nc2ccc(NC(=O)C(C)C)cc2)ccc1Cl to CCc1ccc(OCC(=O)Nc2ccc(OC)cc2)c(Br)c1, the “% Inhibition @ 10 uM” value rises from -6.22% to -4.43%.

Compared with O=C(Nc1nnc(N2CCCCCC2)s1)c1csc2c1CCCC2, O=C(NCCCc1ccccc1)c1csc2c1CCCCC2 is higher in “% Inhibition @ 10 uM” value: -5.32% for the first, 0.277% for the second.

Compared with COc1ccc(S(=O)(=O)N2CCN(S(=O)(=O)c3ccc(OC)c(C)c3)CC2)cc1C, COc1ccc(OC)c(S(=O)(=O)n2nc(C)cc2C)c1 is lower in “% Inhibition @ 10 uM” value: 2.22% for the first, -2.9% for the second.

Going from O=C1C2CCCN2C(c2ccc(Cl)cc2Cl)N1c1nccs1 (stereo not drawn) to CN1CCN(c2cc(Cl)ccc2[N+](=O)[O-])CC1, the “% Inhibition @ 10 uM” value rises from -2.29% to 0.00784%.

First: CC1(C)CC(=O)C2=C(C1)c1c(ccc3ncccc13)NC2c1ccc2c(c1)OCO2 (stereo not drawn)
Second: COc1ccc(C2CC3=NC(C)=C(C#N)C(c4ccc5c(c4)OCO5)C3=C(O)C2)cc1 (stereo not drawn)
The “% Inhibition @ 10 uM” value of the first is higher: 9.33% for the first, -0.99% for the second.

Going from O=C(/C=C/c1ccc(Cl)cc1)N(Cc1cccc(F)c1)C1CCS(=O)(=O)C1 (stereo not drawn) to COc1c(Cl)cc(C(=O)N(Cc2cccc(F)c2)C2CCS(=O)(=O)C2)cc1Cl (stereo not drawn), the “% Inhibition @ 10 uM” value falls from 1.82% to -3.12%.

Going from Cc1ccnc(NC(=O)C(CC(C)C)N2Cc3ccccc3C2=O)c1 (stereo not drawn) to O=C(Nc1cccnc1)C(Cc1ccccc1)N1Cc2ccccc2C1=O (stereo not drawn), the “% Inhibition @ 10 uM” value falls from -1.58% to -1.86%.

First: O=c1c2nnn(-c3cccc(Cl)c3)c2ncn1Cc1ccccc1F
Second: Cc1ccc(-n2nnc3c(=O)n(C/C=C/c4ccccc4)cnc32)cc1
The “% Inhibition @ 10 uM” value of the first is lower: -5.79% for the first, -0.431% for the second.

Compared with CCOC(=O)c1c(NC(=O)C2Cc3ccc(C)cc3C(=O)O2)sc(C)c1C (stereo not drawn), COC(=O)c1c(NC(=O)C2CC2c2ccccc2)sc(C)c1C (stereo not drawn) is lower in “% Inhibition @ 10 uM” value: 1.91% for the first, -2.87% for the second.

Going from CN(C)C(=O)c1ccc(-c2nnc(NCc3ccccc3)c3ccccc23)cc1 to CCOc1ccc(CNCc2c(C(=O)O)n(Cc3ccccc3F)c3ccccc23)cc1, the “% Inhibition @ 10 uM” value rises from -2.87% to 1.17%.

First: O=C1c2ccc(-c3ccc4c(c3)C(=O)N(c3ccccc3O)C4=O)cc2C(=O)N1c1ccccc1O
Second: Cc1cc(-c2ccccc2)nc2cc(-c3ccc(Cl)cc3)nn12
The “% Inhibition @ 10 uM” value of the first is lower: -5.36% for the first, 3.59% for the second.

Compared with CCCc1nnc(NC(=O)c2nc(SC)ncc2Cl)s1, C=CCSc1nnc(NC(=O)c2nc(SCCC)ncc2Cl)s1 is lower in “% Inhibition @ 10 uM” value: 2.19% for the first, 1.25% for the second.

First: N#CCNC(=O)[C@H](CC1CCC(=O)CC1)NC(=O)c1ccccc1
Second: CC(C)C[C@H](NC(=O)c1ccc(C#N)cc1)C(=O)NCC#N
The “% Inhibition @ 10 uM” value of the first is higher: -3.49% for the first, -10.1% for the second.

First: Cc1c(Cl)cccc1-n1nc(C)c2c(C)cc(=O)n(CC(=O)NCc3ccc4c(c3)OCO4)c21
Second: Cc1cc(C)c2nc(N3CCC(C(=O)NCc4ccc5c(c4)OCO5)CC3)sc2c1
The “% Inhibition @ 10 uM” value of the first is lower: -4.36% for the first, -1.58% for the second.

First: COc1ccc(OC)c(N(CC(=O)NCC(C)C)S(C)(=O)=O)c1
Second: COc1ccccc1CC(=O)Nc1nc2ccc(S(C)(=O)=O)cc2s1
The “% Inhibition @ 10 uM” value of the first is higher: 0.909% for the first, 0.146% for the second.

First: COc1ccc(-c2cc(C)no2)cc1S(=O)(=O)N1CCCCCC1
Second: COc1ccc(S(=O)(=O)NCC2CCCO2)cc1C (stereo not drawn)
The “% Inhibition @ 10 uM” value of the first is lower: -5.67% for the first, -2.83% for the second.

First: O=C(O)C1CCN(C(=O)c2cccs2)CC1
Second: CCn1c(C(=O)N2CCC(C(=O)N3CCc4ccccc4C3)CC2)cc2sccc21
The “% Inhibition @ 10 uM” value of the first is lower: -6.65% for the first, 7.91% for the second.

Compared with COc1ccc(C2CC(C(F)(F)F)n3nc(C(=O)NCc4cnn(C)c4C)cc3N2)cc1OC (stereo not drawn), C=CCNC(=O)c1cc(-c2ccccc2OC)on1 is lower in “% Inhibition @ 10 uM” value: -4.6% for the first, -4.79% for the second.

Compared with CCOC(=O)c1cc(C)sc1/N=C/C1C(=O)CC(C)(C)CC1=O, CCOC(=O)c1cnc2c(C)cc3c(C)c(C)n(C)c3c2c1O is lower in “% Inhibition @ 10 uM” value: 0.193% for the first, -2.63% for the second.

First: COc1ccccc1C(=O)Nc1cccc(C(=O)O)c1
Second: O=C(Nc1ccccc1)Nc1ccc2c(c1)C(=O)OC2
The “% Inhibition @ 10 uM” value of the first is lower: -4.02% for the first, 3.32% for the second.

Compared with Cc1ccc2oc(=O)c3cnn(CC(=O)N4CCOCC4)c3c2c1, O=C1N=C(N2CCCCC2)S/C1=C/c1ccc2c(c1)OCO2 is lower in “% Inhibition @ 10 uM” value: -0.0115% for the first, -3.05% for the second.

First: CCC(C)NC(=O)c1ccccc1NS(=O)(=O)c1ccccc1 (stereo not drawn)
Second: CCN(C(=O)Nc1ccccc1)c1ccccc1
The “% Inhibition @ 10 uM” value of the first is higher: 0.727% for the first, -6.05% for the second.

First: CC1CCC(NCc2ccco2)CC1 (stereo not drawn)
Second: CCC1(C)CC(=O)c2c(ccc3oc(C(=O)NCc4ccco4)c(C)c23)O1 (stereo not drawn)
The “% Inhibition @ 10 uM” value of the first is lower: -5.44% for the first, -2.17% for the second.

First: Cc1ccc(S(=O)(=O)NCc2cccnc2)cc1-c1nnc2c3ccccc3c(C)nn12
Second: O=C(CCCn1c(=O)c2cccn2c2cccnc21)NCc1ccccc1Cl
The “% Inhibition @ 10 uM” value of the first is lower: -3.64% for the first, -1.86% for the second.

First: CC(C)c1ccc(OCc2ccc(C(=O)O)cc2)cc1
Second: COc1ccc(CNCc2ccc(C(=O)O)cc2)cc1
The “% Inhibition @ 10 uM” value of the first is lower: -9.66% for the first, -0.256% for the second.

Going from CCOC(=O)N1CCN(c2ccc(/C=C(\C#N)c3nc4ccccc4s3)o2)CC1 to CC1CCN(c2nc3ccc(C(=O)NCCc4ccccc4)cc3s2)CC1, the “% Inhibition @ 10 uM” value falls from 4.67% to -6.01%.

Compared with CC(=O)C1=C(O)C(=O)N(CCCN(C)C)C1c1ccc(Br)cc1 (stereo not drawn), COCCCN1C(=O)C(O)=C(C(=O)c2ccc3c(c2)CC(C)O3)C1c1cccc(OC)c1 (stereo not drawn) is higher in “% Inhibition @ 10 uM” value: -5.19% for the first, 3.8% for the second.

Going from C=CCn1cnc2c(cnn2-c2ccc(C)c(C)c2)c1=O to Cc1ccc(OCc2nc(-c3ccc(OCC(N)=O)cc3)no2)cc1C, the “% Inhibition @ 10 uM” value falls from -0.0309% to -2.92%.

Compared with Cc1cccc(N2CC(C(=O)Nc3ccc(Cl)c(Cl)c3)CC2=O)c1 (stereo not drawn), CCOC(=O)C1=C(C)N=c2s/c(=C\c3ccc(Cl)c(Cl)c3)c(=O)n2C1c1ccc(C)cc1 (stereo not drawn) is higher in “% Inhibition @ 10 uM” value: 2.44% for the first, 6.06% for the second.

Compared with O=C(NCCCc1ccccc1)c1ccc(CN2CC(=O)N3CCCCC3C2=O)cc1 (stereo not drawn), CN(CC(=O)NCCc1ccccc1)S(=O)(=O)c1cccc2nsnc12 is higher in “% Inhibition @ 10 uM” value: -3.88% for the first, -1.43% for the second.

Going from Cn1cnnc1SCC#CCO to COC(=O)c1cccc(SCCS(=O)(=O)c2ccc(C)cc2)c1, the “% Inhibition @ 10 uM” value rises from 0.0539% to 3.01%.

First: Nc1nsc(Br)n1
Second: COc1ccc(C2=NOC(C(=O)NCc3ccccn3)C2)cc1 (stereo not drawn)
The “% Inhibition @ 10 uM” value of the first is lower: 1.74% for the first, 4.74% for the second.

First: CC1CC(C)CN(C(=O)c2cccc(Cl)c2)C1 (stereo not drawn)
Second: COc1ccc(C(=O)N2CCC(N3CCN(C)CC3)CC2)cc1
The “% Inhibition @ 10 uM” value of the first is lower: -1.56% for the first, -1.52% for the second.

Going from CCOc1ccccc1/C=C/C(=O)NCC(=O)O to CCOc1ccccc1CNC(=O)c1cc(-c2ccccc2O)on1, the “% Inhibition @ 10 uM” value rises from -8.34% to -3.47%.

Compared with O=C(O)C1C2CCC(C2)C1C(=O)Nc1nc(-c2ccc(F)cc2F)cs1 (stereo not drawn), O=C(Nc1cc(F)ccc1F)C12CC3CC(C1)CC(n1cnc(Br)n1)(C3)C2 is higher in “% Inhibition @ 10 uM” value: 2.44% for the first, 8.87% for the second.

Going from COc1ccc(/C=N/N=C2\SC(C)C(=O)N2Cc2ccccc2)c(OC)c1 (stereo not drawn) to Cc1cccc(NC(=O)c2ccc(OCc3ccccc3Cl)cc2)n1, the “% Inhibition @ 10 uM” value falls from 1.97% to -8.57%.

First: CCCCN(CCNC(=O)C1CCCN(c2ncnc3c2nc2n3CCCCC2)C1)Cc1ccco1 (stereo not drawn)
Second: Cc1cccc(CCNC(=O)C2CCCN(c3ncnc4onc(-c5ccc(F)cc5)c34)C2)c1 (stereo not drawn)
The “% Inhibition @ 10 uM” value of the first is higher: 3.72% for the first, 0.184% for the second.

Going from COc1ccccc1C1C(C#N)=C(N)OC(C)=C1C(=O)Nc1ccc(SC)cc1 (stereo not drawn) to CC(=O)Nc1ccc(NC(=O)Nc2cccc(Cl)c2)cc1, the “% Inhibition @ 10 uM” value falls from 0.605% to -1.38%.

First: CC(C)NCC(=O)Nc1c2c(nc3c1CCC3)CCCC2
Second: CCNC(=O)c1c(NC(=O)COc2ccc(C)cc2)sc2c1CCCC2
The “% Inhibition @ 10 uM” value of the first is lower: 1.54% for the first, 6.35% for the second.

Compared with COC(=O)CCS(=O)(=O)c1ccc(NC(C)=O)cc1, CCCC(=O)Nc1cccc(-c2cn3ccsc3n2)c1 is higher in “% Inhibition @ 10 uM” value: -1.77% for the first, 4.7% for the second.

Going from NC(=O)C1CCN(Cc2ccc(C(F)(F)F)cc2)CC1 to COc1cc(CN2CCN(c3ccc(F)cc3)CC2)cc2c1OCO2, the “% Inhibition @ 10 uM” value falls from 0.217% to -3.26%.

First: CCN(CC)CCOc1ccccc1
Second: O=[N+]([O-])c1ccc2c(c1)ncn2-c1ccccc1
The “% Inhibition @ 10 uM” value of the first is lower: -0.546% for the first, 3.42% for the second.

Going from CN(C(=O)CNC(=O)c1ccccc1)C1(C(=O)NC2CCCCC2)CCCCC1 to CCOc1ccc(C2C(C(=O)c3ccc4c(c3)CC(C)O4)=C(O)C(=O)N2CC2CCCO2)cc1 (stereo not drawn), the “% Inhibition @ 10 uM” value falls from 2.06% to 1.27%.

Compared with Cc1cccc(OCC(=O)Nc2ccc(F)cc2F)c1, O=C(/C(=C/c1cccs1)c1nc2ccccc2[nH]1)c1ccccc1 is higher in “% Inhibition @ 10 uM” value: -0.49% for the first, -0.479% for the second.

Compared with CCOc1ccc(CCNS(=O)(=O)c2c[nH]cn2)cc1OCC, CCOc1ccc(Br)cc1C1N2CC3(C(C)C)CN1CC(C(C)C)(C2)C3=O (stereo not drawn) is higher in “% Inhibition @ 10 uM” value: -0.499% for the first, 3.66% for the second.
